{"source": "patent US20030013660A1", "about": "“Dioxolane analogs for improved inter-cellular delivery” (Shire BioChem Inc., priority 2000, published 2003)", "note": "Where “and” joins values, the source holds several entries; their conditions need not be identical. Equal values may be shown once. The name of at least one read-out is uncertain.", "data": [{"tested_on": "CEM/dCK-", "assay": "3H-TdR (3H-thymidine) incorporation assay at 72 hr", "format": "cell-based", "conditions": "ratio of IC50 CEM/dCK- to CCRF-CEM, 24 h", "description": "Table of IC50 Values (μM) for Controls\n(§1) Exposition of 24 hr to drug, wash, incubated for another 48 hr (total of 72 hr assay)\n(§2) (3H-Thymidine Incorporation Assay)", "values": [{"smiles": "CCCCC(C)C(=O)Nc1ccn([C@@H]2CO[C@H](CO)O2)c(=O)n1", "note": "(stereo in doubt) [Compound 96, 2-METHYL-HEXANOIC ACID [1-(2-HYDROXYMETHYL- [1,3]DIOXOLAN-4-YL)-2- OXO-1,2-DIHYDRO- PYRIMIDIN-4-YL]-AMIDE]", "Factor* (Resistance Factor = Ratio of dCK- on Wild-type CCRF-CEM)": ">56 and >52"}, {"smiles": "CCOC(OCC)OC[C@H]1OC[C@@H](n2ccc(N)nc2=O)O1", "note": "[Compound 39, 4-AMINO-1-(2- DIETHOXYMETHOXYMETHYL- [1,3]DIOXOLAN-4-YL)-1H- PYRIMIDIN-2-ONE]", "Factor* (Resistance Factor = Ratio of dCK- on Wild-type CCRF-CEM)": "2128 and 1667"}, {"smiles": "Nc1ccn([C@@H]2CO[C@H](COC(=O)Oc3ccccc3)O2)c(=O)n1", "note": "[Compound 42, CARBONIC ACID 4-(4- AMINO-2-OXO-2H- PYRIMIDIN-1-YL)- [1,3]DIOXOLAN-2- YLMETHYL ESTER PHENYL ESTER]", "Factor* (Resistance Factor = Ratio of dCK- on Wild-type CCRF-CEM)": "37272 and 43378"}, {"smiles": "CC(C)(C(=O)Nc1ccn([C@@H]2CO[C@H](CO)O2)c(=O)n1)c1ccccc1[N+](=O)[O-]", "note": "[Compound 60, (2S,4S)--2- HYDROXYMETHYL-4-N-[2″- (2″′-NITROPHENYL)-2″- METHYLPROPIONYL]- CYTOSINE-1′-YL-1,3- DIOXOLANE]", "Factor* (Resistance Factor = Ratio of dCK- on Wild-type CCRF-CEM)": "10 and 6"}, {"smiles": "CCCCOC(C)OC[C@H]1OC[C@@H](n2ccc(N)nc2=O)O1", "note": "(some centres unmarked) [Compound 97, 4-AMINO-1-[2-(1-BUTOXY- ETHOXYMETHYL)- [1,3]DIOXOLAN-4-YL]-1H- PYRIMIDIN-2-ONE]", "Factor* (Resistance Factor = Ratio of dCK- on Wild-type CCRF-CEM)": ">11 and >19"}, {"smiles": "Nc1ccn([C@@H]2CO[C@H](COCc3ccccc3)O2)c(=O)n1", "note": "[Compound 98, (2S,4S) 4-AMINO-1-(2- BENZYLOXYMETHYL- [1,3]DIOXOLAN-4-YL)-1H- PYRIMIDIN-2-ONE]", "Factor* (Resistance Factor = Ratio of dCK- on Wild-type CCRF-CEM)": ">3 and >4"}, {"smiles": "CC(C)c1ccc(NC(=O)OC[C@H]2OC[C@@H](n3ccc(N)nc3=O)O2)cc1", "note": "[Compound 127, (4-ISOPROPYL-PHENYL)- CARBAMIC ACID 4-(4- AMINO-2-OXO-2H- PYRIMIDIN-1-YL)- [1,3]DIOXOLAN-2- YLMETHYL ESTER]", "Factor* (Resistance Factor = Ratio of dCK- on Wild-type CCRF-CEM)": ">7 and >4,5"}, {"smiles": "CC(CCCCN(Cc1ccccc1)C(=O)OC(C)(C)C)C(=O)OC[C@H]1OC[C@@H](n2ccc(/N=C/N(C)C)nc2=O)O1", "note": "(some centres unmarked) [Compound 149, 6-(Benzyl-tert-butoxycarbonyl-amino)-methyl-hexanoic acid 4-[4-(dimethylamino-methyleneamino)-2-oxo-2H-pyrimidin-1-yl]-[1,3]dioxolan-2-ylmethyl ester]", "Factor* (Resistance Factor = Ratio of dCK- on Wild-type CCRF-CEM)": ">19000 and >15000"}, {"smiles": "Cc1cccc(C)c1C(=O)OC[C@H]1OC[C@@H](n2ccc(N)nc2=O)O1.Cl", "note": "[Compound 162, 1-[2-(2,6-DIMETHYL- BENZOYLOXYMETHYL)- [1,3]DIOXOLAN-4-YL]-2- OXO-1,2-DIHYDRO PYRIMIDIN-4-YL- AMMONIUM; CHLORIDE]", "Factor* (Resistance Factor = Ratio of dCK- on Wild-type CCRF-CEM)": ">44 and >36"}, {"smiles": "CC(C)CC(=O)OC[C@H]1OC[C@@H](n2ccc(N)nc2=O)O1", "note": "[Compound 278, 3-METHYL-BUTYRIC ACID 4-(4-AMINO-2-OXO-2H- PYRIMIDIN-1-YL)- [1,3]DIOXOLAN-2-YL METHYL ESTER]", "Factor* (Resistance Factor = Ratio of dCK- on Wild-type CCRF-CEM)": "2543 and 3250"}, {"smiles": "CC(C)(C)C(=O)OC[C@H]1OC[C@@H](n2ccc(N)nc2=O)O1", "note": "[Compound 279, 2,2-DIMETHYL-PROPIONIC ACID 4-(4-AMINO-2-OXO- 2H-PYRIMIDIN-1-YL)- [1,3]DIOXOLAN-2-YL METHYL ESTER]", "Factor* (Resistance Factor = Ratio of dCK- on Wild-type CCRF-CEM)": "1854 and >1205"}]}, {"tested_on": "CEM/dCK-", "assay": "MTT or WST-1 assay at 72 hr (24 hr drug exposure, wash, 48 hr)", "format": "cell-based", "conditions": "CEM/dCK- versus CCRF-CEM, single experiment", "description": "Exposition of 24hr to drug, washed, and incubated for another 48hr (total of 72hr assay)", "values": [{"smiles": "CC(C)C[C@H](N)C(=O)Nc1ccn([C@@H]2CO[C@H](CO)O2)c(=O)n1", "note": "[Compound 257, 2-AMINO-4-METHYL- PENTANOIC ACID [1-(2- HYDROXYMETHYL- [1,3]DIOXOLAN-4-YL)-2- OXO-1,2-DIHYDRO- PYRIMIDIN-4-YL]-AMIDE]", "Resistance Factor*": ">24 and >19"}, {"smiles": "CC(C)C[C@H](NC(=O)[C@H](C)NC(=O)OC(C)(C)C)C(=O)Nc1ccn([C@@H]2CO[C@H](CO)O2)c(=O)n1", "note": "[Compound 263, (1-{1-[1-(2- HYDROXYMETHYL- [1,3]DIOXOLAN-4-YL)-2- OXO-1,2-DIHYDRO- PYRIMIDIN-4- YLCARBANOYL]-3-METHYL- BUTYLCARBAMOYL}-ETHYL)- CARBAMIC ACID TERT- BUTYL ESTER]", "Resistance Factor*": ">5 and >7"}]}, {"tested_on": "CEM/dCK-", "assay": "3H-TdR incorporation at 72 hr (24 hr drug exposure, wash, 48 hr)", "format": "cell-based", "conditions": "ratio of IC50 CEM/dCK- to IC50 CCRF-CEM", "description": "as §1, §2", "values": [{"smiles": "Cc1cccc(C)c1C(=O)OC[C@H]1OC[C@@H](n2ccc(N)nc2=O)O1.Cl", "note": "[Compound 162, 1-[2-(2,6-DIMETHYL- BENZOYLOXYMETHYL)- [1,3]DIOXOLAN-4-YL]-2- OXO-1,2-DIHYDRO PYRIMIDIN-4-YL- AMMONIUM; CHLORIDE]", "Factor* (Resistance Factor = Ratio of dCK- on Wild-type CCRF-CEM)": ">30 and >24"}, {"smiles": "O=c1nc(NS(=O)(=O)c2ccc([N+](=O)[O-])cc2)ccn1[C@@H]1CO[C@H](CO)O1", "note": "[Compound 168, N-[1-(2-HYDROXYMETHYL- [1,3]DIOXOLAN-4-YL)-2- OXO-1,2-DIHYDRO- PYRIMIDIN-4-YL]-4- NITRO- BENZENESULFONAMIDE]", "Factor* (Resistance Factor = Ratio of dCK- on Wild-type CCRF-CEM)": ">3 and >4 and >5"}, {"smiles": "CCCCC[C@]12CC[C@](C(=O)OC[C@H]3OC[C@@H](n4ccc(N)nc4=O)O3)(CC1)CC2", "note": "[Compound 211, 4-PENTYL- BICYCLO[2.2.2]OCTANE-1- CARBOXYLIC ACID 4-(4- AMINO-2-OXO-2H- PYRIMIDIN-1-YL)- [1,3]DIOXOLAN-2-YL METHYL ESTER]", "Factor* (Resistance Factor = Ratio of dCK- on Wild-type CCRF-CEM)": ">3704 and >1887"}, {"smiles": "CCC(CC)(CCCCCCc1ccccc1)C(=O)OC[C@H]1OC[C@@H](n2ccc(N)nc2=O)O1", "note": "[Compound 233, 2,2-DIETHYL-8-PHENYL- OCTANOIC ACID 4-(4- AMINO-2-OXO-2H- PYRIMIDIN-1-YL)- [1,3]DIOXOLAN-2-YL METHYL ESTER]", "Factor* (Resistance Factor = Ratio of dCK- on Wild-type CCRF-CEM)": "1,7 and 2"}]}]}
